Experimental data published in PubChem BioAssay (NCATS).
Inconclusive results are not listed. Unless noted, the call rests on the fitted dose curve; in most records, active means well fitted activation curve with a large enough effect; inconclusive means small, poorly fitted or top-dose-only effect, or effect the other way; inactive means flat fitted curve, though single readings scatter. The source holds more than one record for some entries. The list is limited to them. There may be further records. Values given together repeat one measurement across runs, samples, wells, individuals or studies. The source holds several records for some structures; these can differ, active in one and inactive in another. Brackets tell where a record comes from. Letters count within one entry.

Tests used:
[1] = Cellular Toxicity (caspase-3) NIH 3T3 (AID 666);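 further: caspase signal read after 16 h compound exposure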; further: potency means the concentration at half of the fitted maximal effect
Method in brief: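 Cells were plated at 1000 per well and incubated 5 hr at 37°C, then compound was added for 16 hr. Caspase-Glo 3/7 reagent followed for 20 min at room temperature before luminescence was read.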

[2] = target: Estrogen receptor (Homo sapiens) (UniProt P03372); experiment: qHTS assay for small molecule agonists of estrogen receptor alpha signaling (AID 588514; calls by dose curve; further: nearly all actives have a fitted effect of over 70% in size; further: potency means the concentration at half of the fitted maximal effect;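 on activation: 0% = vehicle only and 100% = reference agonist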)
Sequence of UniProt P03372 (P03372 whole entry, looked up): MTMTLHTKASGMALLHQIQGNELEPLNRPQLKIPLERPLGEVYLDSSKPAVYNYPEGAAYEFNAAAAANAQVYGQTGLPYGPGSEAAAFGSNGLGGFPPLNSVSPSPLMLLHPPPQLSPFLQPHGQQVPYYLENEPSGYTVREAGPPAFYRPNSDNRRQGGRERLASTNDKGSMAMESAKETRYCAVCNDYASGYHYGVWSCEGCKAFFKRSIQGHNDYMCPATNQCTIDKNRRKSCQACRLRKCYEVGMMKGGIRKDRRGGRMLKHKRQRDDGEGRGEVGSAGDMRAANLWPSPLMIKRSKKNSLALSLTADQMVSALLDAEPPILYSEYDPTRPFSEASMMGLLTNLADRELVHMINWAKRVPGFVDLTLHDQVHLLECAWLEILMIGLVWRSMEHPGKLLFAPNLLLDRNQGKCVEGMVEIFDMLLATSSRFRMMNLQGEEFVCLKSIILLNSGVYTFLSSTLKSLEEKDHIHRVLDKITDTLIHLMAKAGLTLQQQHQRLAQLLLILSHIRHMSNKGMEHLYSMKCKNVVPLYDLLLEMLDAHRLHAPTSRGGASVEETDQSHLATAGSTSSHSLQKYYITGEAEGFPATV
Method in brief: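 Efficacy is expressed against 20 nM 17-beta-estradiol (100%) and DMSO basal (0%); EC50 from Hill equation. Assay: beta-lactamase reporter in ER-alpha-UAS-bla HEK 293 cells, 18 h compound incubation, CCF4 detection.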

[3] = qHTS assay for small molecule antagonists of peroxisome proliferator-activated receptor delta signaling (AID 588535); details: HEK293T PPARd-UAS-bla, beta-lactamase FRET ratio, 18 h; 460 nm channel;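 further: cells co-treated with a PPAR-delta agonist as stimulator during compound exposure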
Method in brief: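 Titrations were run on PPAR-delta-UAS-bla HEK293T cells in charcoal/dextran-stripped serum, incubated 18 h at 37 C. CCF4 fluorescence (460/530 nm) after 2 h RT; Hill equation yields IC50 and maximal response.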

Question: For `[O]=[Cr](=[O])([OH])[O][Cr](=[O])(=[O])[OH]`, which Potency [1] is on record?
Answer: active: 50.1 µM [sample A] and inactive [sample B]

Question: For `CCCCCCCCOC(=O)c1ccccc1C(=O)OCCCCCCCC`, which Potency [2] is on record?
Answer: active: 39.8 µM [sample A] and inactive [sample B]

Question: For `ClC1C(Cl)C(Cl)C(Cl)C(Cl)C1Cl` (stereo not drawn), which max response [3] is on record?
Answer: 10.7, 24.6, 26.3, -22.3% [separate samples]
